{
  "source": "PubChem BioAssay AID540317",
  "about": "(National Center for Advancing Translational Sciences (NCATS), 2011)",
  "note": "Hit rate of the full screen: of about 390,000 compounds, about 2,200 (0.56%) were called active. Inconclusive results, whose numbers are uncertain, are shown with a selection of clear calls. Calls come from the whole dose curve; as a rule, active = well fitted inhibition curve with a large enough effect; inconclusive = small, poorly fitted or top-dose-only effect; inactive = no such curve, though single readings can be large or run the other way. Potencies beside an inconclusive call are fits to weak or partial responses and may not hold up. Potency is the fitted concentration of half-maximal effect; tags give direction and shape of the fitted curve.",
  "data": [
    {"target": "Chromobox protein homolog 1 (Homo sapiens) (UniProt P83916)", "sequence (P83916 whole entry, looked up)": "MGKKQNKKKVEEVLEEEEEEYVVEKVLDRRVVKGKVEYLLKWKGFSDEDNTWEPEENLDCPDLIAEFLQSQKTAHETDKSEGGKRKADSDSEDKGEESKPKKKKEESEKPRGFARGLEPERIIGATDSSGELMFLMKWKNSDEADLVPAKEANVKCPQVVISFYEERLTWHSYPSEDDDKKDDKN", "assay": "HTS for Inhibitors of HP1-beta Chromodomain Interactions with Methylated Histone Tails; note: nearly all actives have a fitted effect of over 70% in size", "conditions": "AlphaScreen HP1-beta / biotin-H3K9me3 peptide binding; series mostly up to 114 µM", "how_it_was_run": "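AlphaScreen: HP1-beta (50 nM) preformed 30 min with biotin-H3(1-18)K9me3 peptide (50 nM) in PBS pH 7.4, 0.01% Tween-20. Compound added for 30 min at RT, then streptavidin donor/nickel chelate acceptor beads (10 ug/mL) for 30 min.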", "values": [
      {"smiles": "O=c1c(Cc2ccc(Cl)cc2)c(O)ccn1Cc1ccccc1", "Potency": "inactive"},
      {"smiles": "COc1cc(-c2nc3ccccn3c2/N=C/c2cccc(OC)c2O)ccc1O", "Potency": "inactive"},
      {"smiles": "O=C(Nc1ccc(Br)c2ccccc12)c1ccc2ccccc2c1O", "Potency": "inconclusive: 35.5 µM [inhibitor, partial curve]"},
      {"smiles": "CCN(CC(=O)Nc1c(F)cccc1F)C(=O)Cc1ccc2c(c1)OCCO2", "Potency": "inactive"},
      {"smiles": "Cc1cc(C(=O)CN2C(=O)NC(CCS(C)(=O)=O)C2=O)c(C)n1C1CC1", "note": "(configuration not stated)", "Potency": "inactive"},
      {"smiles": "Nc1c(/C=C2/C=CC(=O)C(O)=C2)c(=O)nc2sc(CC(=O)N3CCCC3)nn12", "Potency": "inconclusive: 15.8 µM [inhibitor, partial curve, poor fit]"},
      {"smiles": "O=C(CSc1nccn1-c1ccc(Cl)cc1)Nc1cccc2ccccc12", "Potency": "inconclusive: 11.2 µM [inhibitor, partial curve]"},
      {"smiles": "CSc1ccc(CCNC(=O)c2ccc3c(c2)nc2n3CCCCC2)cc1", "Potency": "inactive"},
      {"smiles": "CCCNC(=S)N1CCN(C)CC1", "Potency": "inconclusive: 31.6 µM [inhibitor, single point]"},
      {"smiles": "CCOc1cc(/C=C2\\SC(=S)N(C(C(=O)O)c3ccccc3)C2=O)ccc1O", "note": "(configuration not stated)", "Potency": "inconclusive: 31.6 µM [inhibitor, partial curve]"},
      {"smiles": "Cc1ccc(CN2CCN(/N=C/c3ccc(C)s3)CC2)cc1", "Potency": "inconclusive: 50.1 µM [inhibitor, partial curve]"},
      {"smiles": "CC(=O)c1ccccc1OCCCN1CCCCC1", "Potency": "inconclusive: 56.2 µM [inhibitor, single point]"},
      {"smiles": "Cc1ccc(-n2c(N)c(C(=O)NCc3cccnc3)sc2=S)cc1", "Potency": "inconclusive: 22.4 µM [inhibitor, full curve, poor fit]"},
      {"smiles": "CC1CN(CCCOc2ccccc2-c2ccccc2)CC(C)O1", "note": "(configuration not stated)", "Potency": "inconclusive: 50.1 µM [inhibitor, partial curve]"},
      {"smiles": "Cc1oc2ccc(O)c(CN3CCCC3)c2c1C(=O)Nc1ccccc1", "Potency": "inactive"},
      {"smiles": "CCCn1nnnc1NCc1cc(Br)ccc1OC", "Potency": "inactive"},
      {"smiles": "c1ccc(OCc2nn3c(Cn4cnc5ccccc54)nnc3s2)cc1", "Potency": "inconclusive: 25.1 µM [inhibitor, full curve]"},
      {"smiles": "O=C(NCCCOc1ccc([N+](=O)[O-])cc1Cl)OCc1ccccc1", "Potency": "inactive"},
      {"smiles": "Cc1c(C(=O)NNC(=O)c2ccncc2)oc2ccc(Br)cc12", "Potency": "inactive"},
      {"smiles": "Cc1ccc(S(=O)(=O)Nc2cc(=O)[nH]c(SCc3ccccc3Cl)n2)cc1", "Potency": "inactive"},
      {"smiles": "CCN1CCN(CCOCCOc2ccccc2)CC1", "Potency": "inconclusive: 14.1 µM [inhibitor, partial curve, poor fit]"},
      {"smiles": "O=C(NC1=NCCS1)c1sc2cc(F)ccc2c1Cl", "Potency": "inconclusive: 35.5 µM [inhibitor, single point]"}
    ]}
  ]
}
